Assay results reported in patent publication US20200323843A1 (IRR, Inc., priority 2010, published 2020).

Legend:
[1] = test system: human rhinovirus 16 (HRV-16); settings: HRV-16 inoculation; levocetirizine 5 mg po and/or montelukast 10 mg po
[2] = test system: chronic rhinosinusitis with nasal polyposis (CRSwNP); settings: 12 months

## O=C(O)COCCN1CCN([C@H](c2ccccc2)c2ccc(Cl)cc2)CC1 [Levocetirizine, levocetirizine]
[1]
  common cold symptoms: mild to moderate reduction
[2]
  QOL: mild to moderate improvement
[2]; levocetirizine 5 mg po and/or montelukast 10 mg po
  number and size of nasal polyps: mild to moderate improvement
